This is one part of the list. The list includes weakly bound sequences.
What follows are sequences tested against T1, MBP-FoxP3dN (UniProt Q99JB6) (assay: PD-seq (MBP pull-down with sequencing)). Settings: 20 mM Tris-HCl pH 7.5, 100 mM NaCl, 1.5 mM MgCl2, 0.4 uM protein, 0.1 uM dsDNA library, 30 min, room temperature, amylose pull-down; high values mean tight binding; double strand, one strand shown.
T1 sequence: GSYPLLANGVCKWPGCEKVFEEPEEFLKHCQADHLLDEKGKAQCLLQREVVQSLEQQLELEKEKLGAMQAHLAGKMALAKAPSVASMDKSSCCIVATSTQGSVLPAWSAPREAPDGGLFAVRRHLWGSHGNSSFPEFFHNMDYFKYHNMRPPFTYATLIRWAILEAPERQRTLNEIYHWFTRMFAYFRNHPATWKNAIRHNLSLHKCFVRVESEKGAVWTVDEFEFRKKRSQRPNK

Sequence | binding signal (RPM ratio (pull-down/input))
GATGATTGTTCTCCCAGCTGATGAATTACAACCATCGAGTAAACAAATTTTCCTAATCTTTCTGTTCAAGCGCCATCTAC | 0.693
GATGATTGTTCTCCCAGCTGATGAATTTATAAACTCGAGTAAACAAATTTTCCTAATCTTTCTGTTCAAGCGCCATCTAC | 0.622
GATGATTGTTCTCCCAGCTGATGAATTTACGCATTCGAGTAAACAAATTTTCCTAATCTTTCTGTTCAAGCGCCATCTAC | 6.38
GATGATTGTTCTCCCAGCTGATGAATTGGTGACTTCGAGTAAACAAATTTTCCTAATCTTTCTGTTCAAGCGCCATCTAC | 0.689
GATGATTGTTCTCCCAGCTGATGAATTAATAGATTCGAGTAAACAAATTTTCCTAATCTTTCTGTTCAAGCGCCATCTAC | 0.317
GATGATTGTTCTCCCAGCTGATGAATTGGCTGGGTCGAGTAAACAAATTTTCCTAATCTTTCTGTTCAAGCGCCATCTAC | 0.34
GATGATTGTTCTCCCAGCTGATGAATTCGTTACATCGAGTAAACAAATTTTCCTAATCTTTCTGTTCAAGCGCCATCTAC | 0.657
GATGATTGTTCTCCCAGCTGATGAATTCGGATATTCGAGTAAACAAATTTTCCTAATCTTTCTGTTCAAGCGCCATCTAC | 0.752
GATGATTGTTCTCCCAGCTGATGAATTTCCTAGGTCGAGTAAACAAATTTTCCTAATCTTTCTGTTCAAGCGCCATCTAC | 0.191
GATGATTGTTCTCCCAGCTGATGAATTCGGGAAGTCGAGTAAACAAATTTTCCTAATCTTTCTGTTCAAGCGCCATCTAC | 0.172
GATGATTGTTCTCCCAGCTGATGAATTTAATAAGTCGAGTAAACAAATTTTCCTAATCTTTCTGTTCAAGCGCCATCTAC | 0.357
GATGATTGTTCTCCCAGCTGATGAATTTCCCAATTCGAGTAAACAAATTTTCCTAATCTTTCTGTTCAAGCGCCATCTAC | 0.231
GATGATTGTTCTCCCAGCTGATGAATTGAAAGCCTCGAGTAAACAAATTTTCCTAATCTTTCTGTTCAAGCGCCATCTAC | 0.364
GATGATTGTTCTCCCAGCTGATGAATTCAGGTGTTCGAGTAAACAAATTTTCCTAATCTTTCTGTTCAAGCGCCATCTAC | 0.709
GATGATTGTTCTCCCAGCTGATGAATTAGCTGACTCGAGTAAACAAATTTTCCTAATCTTTCTGTTCAAGCGCCATCTAC | 1.43
GATGATTGTTCTCCCAGCTGATGAATTTTCGACATCGAGTAAACAAATTTTCCTAATCTTTCTGTTCAAGCGCCATCTAC | 0.532

Sequence | binding signal (RPM ratio (pull-down/input))
GATGATTGTTCTCCCAGCTGATGAATTTCAGTAGTCGAGTAAACAAATTTTCCTAATCTTTCTGTTCAAGCGCCATCTAC | 0.389
GATGATTGTTCTCCCAGCTGATGAATTAGGGTATTCGAGTAAACAAATTTTCCTAATCTTTCTGTTCAAGCGCCATCTAC | 0.993
GATGATTGTTCTCCCAGCTGATGAATTCTTCACTTCGAGTAAACAAATTTTCCTAATCTTTCTGTTCAAGCGCCATCTAC | 0.259
GATGATTGTTCTCCCAGCTGATGAATTGGTAGTGTCGAGTAAACAAATTTTCCTAATCTTTCTGTTCAAGCGCCATCTAC | 1.68
GATGATTGTTCTCCCAGCTGATGAATTTAGGAGATCGAGTAAACAAATTTTCCTAATCTTTCTGTTCAAGCGCCATCTAC | 0.289
GATGATTGTTCTCCCAGCTGATGAATTGGAAGCGTCGAGTAAACAAATTTTCCTAATCTTTCTGTTCAAGCGCCATCTAC | 0.408
GATGATTGTTCTCCCAGCTGATGAATTATTTTGTTCGAGTAAACAAATTTTCCTAATCTTTCTGTTCAAGCGCCATCTAC | 1.15
GATGATTGTTCTCCCAGCTGATGAATTCCTCTACTCGAGTAAACAAATTTTCCTAATCTTTCTGTTCAAGCGCCATCTAC | 0.304
GATGATTGTTCTCCCAGCTGATGAATTTACTGACTCGAGTAAACAAATTTTCCTAATCTTTCTGTTCAAGCGCCATCTAC | 0.874
GATGATTGTTCTCCCAGCTGATGAATTGGTTGTTTCGAGTAAACAAATTTTCCTAATCTTTCTGTTCAAGCGCCATCTAC | 5.26
GATGATTGTTCTCCCAGCTGATGAATTGCCAAGGTCGAGTAAACAAATTTTCCTAATCTTTCTGTTCAAGCGCCATCTAC | 0.337
GATGATTGTTCTCCCAGCTGATGAATTGTTATCTTCGAGTAAACAAATTTTCCTAATCTTTCTGTTCAAGCGCCATCTAC | 2.82
GATGATTGTTCTCCCAGCTGATGAATTCTCTTGTTCGAGTAAACAAATTTTCCTAATCTTTCTGTTCAAGCGCCATCTAC | 0.459
GATGATTGTTCTCCCAGCTGATGAATTCCTTTTCTCGAGTAAACAAATTTTCCTAATCTTTCTGTTCAAGCGCCATCTAC | 0.368
GATGATTGTTCTCCCAGCTGATGAATTACGTCACTCGAGTAAACAAATTTTCCTAATCTTTCTGTTCAAGCGCCATCTAC | 1.34
GATGATTGTTCTCCCAGCTGATGAATTAGGTGACTCGAGTAAACAAATTTTCCTAATCTTTCTGTTCAAGCGCCATCTAC | 0.899

— article PMC12820563
